{"source": "PubChem BioAssay AID360", "about": "(National Center for Advancing Translational Sciences (NCATS), 2006)", "note": "The whole screen tested about 48,000 compounds, of which about 550 (1.1%) were called active. Inconclusive results (about 4%) are left out. Cut-off read from the data, not from the text of the source: active = potency below about 15 µM; inconclusive = mostly about 16 µM to 33 µM; inactive = weaker than that. The list shows a part of the results. Potency is the fitted concentration of half-maximal effect."}
{"biological_target": "Lysosomal acid glucosylceramidase (Homo sapiens) (UniProt P04062)", "sequence (P04062 whole entry, looked up)": "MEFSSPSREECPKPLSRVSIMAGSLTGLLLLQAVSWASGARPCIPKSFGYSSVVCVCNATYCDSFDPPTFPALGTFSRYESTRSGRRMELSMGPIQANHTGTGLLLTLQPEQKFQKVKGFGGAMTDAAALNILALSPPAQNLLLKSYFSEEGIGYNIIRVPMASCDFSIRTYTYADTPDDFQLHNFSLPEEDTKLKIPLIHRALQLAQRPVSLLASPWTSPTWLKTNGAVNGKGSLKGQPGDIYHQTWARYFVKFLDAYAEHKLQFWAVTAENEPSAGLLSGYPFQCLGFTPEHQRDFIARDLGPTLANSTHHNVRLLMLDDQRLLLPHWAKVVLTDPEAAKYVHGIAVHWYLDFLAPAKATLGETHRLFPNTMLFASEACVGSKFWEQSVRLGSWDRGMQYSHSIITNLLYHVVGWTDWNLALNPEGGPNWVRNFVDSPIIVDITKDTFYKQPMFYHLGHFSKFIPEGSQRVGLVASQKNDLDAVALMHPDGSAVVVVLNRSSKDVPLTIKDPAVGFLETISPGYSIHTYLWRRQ", "assay": "Glucocerebrosidase;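 note: the screen sought inhibitors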", "conditions": "purified enzyme, resorufin glucoside fluorescence (screen aimed at inhibitors), 20 min", "method_in_brief": "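Wild-type enzyme at 0.2 nM final in 50mM citric acid/KH2PO4, 10mM sodium taurocholate, 0.01% tween-20, pH 5.9, with resorufin beta-D-glucopyranoside at 30 uM final. Compounds titrated, 20 min at RT, red fluorescence read; AC50 from titration.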"}
{"smiles": "Cc1ccc(NC(=O)CSc2nccc(=O)[nH]2)c(S(=O)(=O)N2CCOCC2)c1", "Potency": "inactive: > 76.9 µM"}
{"smiles": "Brc1cnn(-c2nc(N3CCOCC3)nc(N3CCOCC3)n2)c1", "Potency": "inactive: > 76.9 µM"}
{"smiles": "CCCC(=O)Nc1ccc(NC(=O)c2ccccn2)cn1", "Potency": "inactive: > 76.9 µM"}
{"smiles": "CCOc1cc(S(=O)(=O)N2CCN(c3ccc(F)cc3)CC2)c(OCC)cc1-n1cnnn1", "Potency": "inactive: > 76.9 µM"}
{"smiles": "CS(=O)(=O)N(CC(=O)N1CCCCCC1)c1ccc(Br)cc1", "Potency": "inactive: > 76.9 µM"}
{"smiles": "COc1cccc(-c2csc3nnc(SCC(=O)NCc4cccs4)n23)c1", "Potency": "inactive: > 76.9 µM"}
{"smiles": "COC(=O)C1(CO)NC(c2cccs2)C2C(=O)N(c3ccccc3)C(=O)C21", "note": "(configuration not stated)", "Potency": "inactive: > 76.9 µM"}
{"smiles": "O=C1CNC(=O)N1Cc1ccc(Br)cc1", "Potency": "inactive: > 76.9 µM"}
{"smiles": "Cc1[nH]c2ccccc2c1C(=O)COC(=O)C1CCC(=O)N1", "note": "(configuration not stated)", "Potency": "inactive: > 76.9 µM"}
{"smiles": "Cc1n[nH]c(=O)nc1NCc1ccco1", "Potency": "inactive: > 76.9 µM"}
{"smiles": "CC(C)C(=O)Nc1ccccc1N1CCN(S(C)(=O)=O)CC1", "Potency": "inactive: > 76.9 µM"}
{"smiles": "CCOC(=O)N1CCC(NC(=O)CCC(=O)N2CC(C)Oc3ccc(C)cc32)CC1", "note": "(configuration not stated)", "Potency": "inactive: > 76.9 µM"}
{"smiles": "COc1cc(NC(=O)C2CCCO2)c(C(=O)O)cc1OC", "note": "(configuration not stated)", "Potency": "inactive: > 76.9 µM"}
{"smiles": "Cn1cnnc1SCC(=O)Nc1sc2c(c1C(N)=O)CCC2", "Potency": "inactive: > 76.9 µM"}
{"smiles": "O=C(Nc1nc2c(Cl)cccc2s1)c1ccc(Br)o1", "Potency": "inactive: > 76.9 µM"}
{"smiles": "O=C(Nc1cccc(F)c1)c1cc(S(=O)(=O)N2CCC(C(=O)O)CC2)ccc1F", "Potency": "inactive: > 76.9 µM"}
{"smiles": "CC1CCN(C(=O)C2c3ccccc3C(=O)N3CCc4ccccc4C23)CC1", "note": "(configuration not stated)", "Potency": "inactive: > 76.9 µM"}
{"smiles": "CC(=O)Nc1ccc(NC(=O)CSc2nnc(C3CC3)n2C)cc1", "Potency": "inactive: > 76.9 µM"}
{"smiles": "O=C(NC1CCCCC1)c1ccc(S(=O)(=O)NCc2ccco2)cc1", "Potency": "inactive: > 76.9 µM"}
{"smiles": "CC(C)c1ccc(NS(=O)(=O)c2ccc3[nH]cc(C(=O)N4CCC(C(N)=O)CC4)c(=O)c3c2)cc1", "Potency": "inactive: > 76.9 µM"}
{"smiles": "COc1ccc(-c2nc3c(c(=O)n(C)c(=O)n3C)n2CC2CC(c3ccccc3)=NO2)cc1OC", "note": "(configuration not stated)", "Potency": "inactive: > 76.9 µM"}
{"smiles": "CCOC(=O)CS(=O)(=O)c1nc(-c2ccccc2)cc(C(F)(F)F)n1", "Potency": "inactive: > 76.9 µM"}
{"smiles": "O=C(O)CNS(=O)(=O)c1cc(Cl)c(Cl)cc1Cl", "Potency": "inactive: > 76.9 µM"}
{"smiles": "COc1cc(OC)nc(NC(=O)CSc2nnc(-c3ccccc3)n2C2CCCCC2)n1", "Potency": "inactive: > 76.9 µM"}
{"smiles": "CCOC(=O)CSc1nc(C)c2cc(OC)ccc2n1", "Potency": "inactive: > 76.9 µM"}
{"smiles": "O=C(CCn1cccc1)NCc1ccc(Cl)cc1", "Potency": "inactive: > 76.9 µM"}
{"smiles": "Cc1ccc(CCNC(=O)C2CCN(c3nn4c(=O)cc(C)nc4s3)CC2)cc1", "Potency": "inactive: > 76.9 µM"}
{"smiles": "COc1ccc(C2C(C(=O)NCc3ccccn3)c3cc(OC)c(OC)cc3C(=O)N2C)cc1", "note": "(configuration not stated)", "Potency": "inactive: > 76.9 µM"}
{"smiles": "CCOC(=O)c1cc2n(c1C)-c1ccccc1C2=O", "Potency": "inactive: > 76.9 µM"}
{"smiles": "COC(=O)C1=C(CN2CCSCC2)NC(=O)NC1c1cc(C)ccc1C", "note": "(configuration not stated)", "Potency": "inactive: > 76.9 µM"}
{"smiles": "O=c1cc(CSc2ccc(S(=O)(=O)N3CCCCC3)cn2)nc2sccn12", "Potency": "inactive: > 76.9 µM"}
{"smiles": "CCC(CC)C(=O)Nc1cc(OC)c(OC)cc1C(=O)O", "Potency": "inactive: > 76.9 µM"}
{"smiles": "Cc1ccc(-c2nnn(CC(=O)O)n2)cc1", "Potency": "inactive: > 76.9 µM"}
{"smiles": "Cc1ccc(S(=O)(=O)N(C)CC(=O)N2CCN(C(=O)c3ccco3)CC2)cc1", "Potency": "inactive: > 76.9 µM"}
{"smiles": "Cn1c(SCC(=O)c2ccc(F)cc2)nnc1-c1ccccc1N", "Potency": "inactive: > 76.9 µM"}
{"smiles": "CCOC(=O)N1CCN(CC(O)COCC2=CCC3CC2C3(C)C)CC1", "note": "(configuration not stated)", "Potency": "inactive: > 76.9 µM"}
{"smiles": "N#CCCN1CCN(S(=O)(=O)c2ccc(C#N)cc2)CC1", "Potency": "inactive: > 76.9 µM"}
{"smiles": "CCOC(=O)c1c(P(=O)(N2CCOCC2)N2CCOCC2)noc1N", "Potency": "inactive: > 76.9 µM"}
{"smiles": "CCCn1c(SCC(=O)Nc2cc(C)on2)nc2c1c(=O)n(C)c(=O)n2C", "Potency": "inactive: > 76.9 µM"}
{"smiles": "O=C(c1cccs1)N1CCC(c2nc(-c3ccc(S(=O)(=O)N4CCOCC4)cc3)no2)CC1", "Potency": "inactive: > 76.9 µM"}
{"smiles": "Cc1ccc(NC(=O)NC(=O)CSc2nnnn2C)c(C)c1", "Potency": "inactive: > 76.9 µM"}
{"smiles": "CCN1C(=O)CSc2ccc(C(=O)NCc3ccco3)cc21", "Potency": "inactive: > 76.9 µM"}
{"smiles": "Cc1ccccc1Cn1nc(C)c(NC(=O)c2cc3nc(-c4ccco4)cc(C(F)(F)F)n3n2)c1C", "Potency": "inactive: > 76.9 µM"}
{"smiles": "CCOc1cc(-c2ccc3c(c2)OCO3)cc(=O)c2c(C)oc(C)c12", "Potency": "inactive: > 76.9 µM"}
{"smiles": "Cc1ccc(-c2nc(CSCC(=O)N3CCOCC3)c(C)o2)cc1", "Potency": "inactive: > 76.9 µM"}
{"smiles": "O=C(NCc1cccnc1)c1cn(CCc2ccccc2)nn1", "Potency": "inactive: > 76.9 µM"}
{"smiles": "CCCCn1c(C)nc2c(=O)n(C)c(=O)[nH]c21", "Potency": "inactive: > 76.9 µM"}
{"smiles": "O=C(Cn1cnc2c(nnn2Cc2ccc(F)cc2)c1=O)N1CCN(c2ccccc2)CC1", "Potency": "inactive: > 76.9 µM"}
{"smiles": "c1ccc(C(c2nnnn2Cc2cccs2)N2CCN(C3CCCC3)CC2)cc1", "note": "(configuration not stated)", "Potency": "inactive: > 76.9 µM"}
{"smiles": "CCOC(=O)c1c(C)n(C)c2ccc(OCC(O)Cn3nc(C)c(Br)c3C)cc12", "note": "(configuration not stated)", "Potency": "inactive: > 76.9 µM"}
{"smiles": "Cc1nc2ccccn2c1/C(O)=C1\\C(=O)C(=O)N(CCN2CCOCC2)C1c1cccnc1", "note": "(configuration not stated)", "Potency": "inactive: > 76.9 µM"}
{"smiles": "CCn1c(N)c(C(=O)NCC2CCCO2)sc1=S", "note": "(configuration not stated)", "Potency": "inactive: > 76.9 µM"}
{"smiles": "Cc1nc(SCc2ccccc2)c(C(F)(F)F)c(=O)[nH]1", "Potency": "inactive: > 76.9 µM"}
{"smiles": "Nc1nc(Nc2cccc3ccccc23)nc(C2CCCC2=O)n1", "note": "(configuration not stated)", "Potency": "active: 1.52 µM"}
{"smiles": "COc1ccccc1NC(=O)CSc1nnc(-c2ccco2)o1", "Potency": "inactive: > 76.9 µM"}
{"smiles": "Nc1nc(-c2cccnc2)nn1S(=O)(=O)c1ccccc1", "Potency": "inactive: > 76.9 µM"}
{"smiles": "Cc1cc(NC(=O)CSc2nnc(-c3ccco3)n2Cc2ccco2)no1", "Potency": "inactive: > 76.9 µM"}
